Laboratory results published in PMC11074830.
No constants are given. Whether binding was seen depends on the method and setting. In cells and extracts the contact can be indirect. Some results given as binding are weak or reduced against the parent protein; the word gives no strength. For some assays here: Tags and fused reporters may be left off the sequences shown.

Sequences of proteins named here, by UniProt entry; tags and fusion partners are left off.
UniProt P53350: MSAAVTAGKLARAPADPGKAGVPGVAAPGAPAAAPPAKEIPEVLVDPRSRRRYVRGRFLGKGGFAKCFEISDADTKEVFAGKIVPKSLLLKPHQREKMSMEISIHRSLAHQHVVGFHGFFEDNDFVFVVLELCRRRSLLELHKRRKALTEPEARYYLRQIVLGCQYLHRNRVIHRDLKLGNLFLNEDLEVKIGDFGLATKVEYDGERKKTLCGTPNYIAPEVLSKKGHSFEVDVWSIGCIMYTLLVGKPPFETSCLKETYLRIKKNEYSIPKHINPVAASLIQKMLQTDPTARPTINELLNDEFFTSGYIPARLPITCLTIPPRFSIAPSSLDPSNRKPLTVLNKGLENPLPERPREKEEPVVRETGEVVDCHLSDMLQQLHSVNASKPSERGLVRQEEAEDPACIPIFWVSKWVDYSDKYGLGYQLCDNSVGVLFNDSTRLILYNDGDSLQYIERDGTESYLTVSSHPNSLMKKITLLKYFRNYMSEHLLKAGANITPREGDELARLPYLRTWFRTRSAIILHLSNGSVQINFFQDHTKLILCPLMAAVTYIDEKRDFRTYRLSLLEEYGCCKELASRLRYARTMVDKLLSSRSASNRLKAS
UniProt Q96GD4: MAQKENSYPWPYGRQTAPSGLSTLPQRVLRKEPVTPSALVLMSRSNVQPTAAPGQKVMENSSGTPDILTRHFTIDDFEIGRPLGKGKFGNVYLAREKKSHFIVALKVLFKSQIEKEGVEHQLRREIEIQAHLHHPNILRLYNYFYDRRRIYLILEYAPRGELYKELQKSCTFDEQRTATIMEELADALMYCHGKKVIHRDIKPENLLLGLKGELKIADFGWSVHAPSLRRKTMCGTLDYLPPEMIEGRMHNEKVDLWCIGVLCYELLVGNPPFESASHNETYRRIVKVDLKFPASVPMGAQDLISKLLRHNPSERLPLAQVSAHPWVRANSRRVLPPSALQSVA

T1: Elk-1 transcription factor (endogenous) (human (endogenous in SH-SY5Y and U87)) (UniProt P19419)
T1 sequence: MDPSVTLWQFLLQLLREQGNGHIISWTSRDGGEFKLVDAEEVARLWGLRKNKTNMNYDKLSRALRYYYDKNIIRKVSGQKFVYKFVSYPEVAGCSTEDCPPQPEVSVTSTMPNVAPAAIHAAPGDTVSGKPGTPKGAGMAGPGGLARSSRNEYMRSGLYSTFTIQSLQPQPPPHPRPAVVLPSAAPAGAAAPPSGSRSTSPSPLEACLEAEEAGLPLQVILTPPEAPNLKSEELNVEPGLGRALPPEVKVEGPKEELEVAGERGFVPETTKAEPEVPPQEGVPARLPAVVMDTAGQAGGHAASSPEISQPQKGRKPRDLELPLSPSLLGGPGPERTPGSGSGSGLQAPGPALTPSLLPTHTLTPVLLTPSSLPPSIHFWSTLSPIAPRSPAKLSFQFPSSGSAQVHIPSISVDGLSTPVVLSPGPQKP

T2: GST-Elk-1 (349-428) (UniProt P19419)
T2 sequence: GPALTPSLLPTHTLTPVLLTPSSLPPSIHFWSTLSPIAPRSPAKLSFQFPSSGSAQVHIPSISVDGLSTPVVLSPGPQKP

T3: GST-Elk-1 (1-93) (UniProt P19419)
T3 sequence: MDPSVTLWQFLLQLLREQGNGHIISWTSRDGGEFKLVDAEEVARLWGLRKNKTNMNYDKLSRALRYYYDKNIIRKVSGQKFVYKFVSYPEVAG

T4: GST-Elk-1 (1-205) (UniProt P19419)
T4 sequence: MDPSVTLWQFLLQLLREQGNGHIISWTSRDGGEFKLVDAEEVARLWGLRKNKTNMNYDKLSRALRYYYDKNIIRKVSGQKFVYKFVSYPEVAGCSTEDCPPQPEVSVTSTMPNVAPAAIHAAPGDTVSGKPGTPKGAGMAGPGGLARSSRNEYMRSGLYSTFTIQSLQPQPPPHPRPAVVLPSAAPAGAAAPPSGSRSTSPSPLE


Legend:
[1] = molecular target: T1, Elk-1 transcription factor (endogenous) (human (endogenous in SH-SY5Y and U87)); test: co-IP; endogenous Elk-1 immunoprecipitated with anti-Elk-1 antibody and protein A agarose from SH-SY5Y lysate (RIPA buffer); blots for Aur-A, Aur-B, Cdk1, Plk1; IgG as IP control
GST-Elk-1 (349-428) = molecular target: T2, GST-Elk-1 (349-428); test: pull-down; GST or GST-Elk-1 deletions semipurified on glutathione-sepharose beads, incubated with U87 glioblastoma cell lysates; Western blot for Aur-A, Aur-B, Cdk1, Plk1, ERK, SRF; only the target purified
GST-Elk-1 (1-93) = molecular target: T3, GST-Elk-1 (1-93); test: as above
GST-Elk-1 (1-205) = molecular target: T4, GST-Elk-1 (1-205); test: as above
[2] = molecular target: T1, Elk-1 transcription factor (endogenous) (human (endogenous in SH-SY5Y and U87)); test: co-IP; U87 cells arrested with 100 ng/ml nocodazole for 16 hr, released, collected at 0, 30, 60 and 90 min; Elk-1 immunoprecipitated with anti-Elk-1 antibody; blots for Aurora-A, Aurora-B, Cdk1, Plk1
[3] = molecular target: T1, Elk-1 transcription factor (endogenous) (human (endogenous in SH-SY5Y and U87)); test: condition: only 60 or 90 min after release from nocodazole arrest; co-IP; as a2, samples at 60 and 90 min after release from nocodazole arrest (U87 cells)

binding [1] | binding (GST-Elk-1 (349-428)) | binding (GST-Elk-1 (1-93)) | binding (GST-Elk-1 (1-205)) | binding [2] | binding [3] | Molecule
binds | no binding | no binding | binds | binds | – | Polo-like kinase-1 (endogenous) (from UniProt P53350 1-603) (enzyme)
binds | no binding | no binding | binds | binds | – | Aurora-B (endogenous) (from UniProt Q96GD4 1-344) (enzyme)
binds | no binding | no binding | binds | binds | no binding | Aurora-A (endogenous) (enzyme, UniProt O14965 1-403) MDRSKENCISGPVKATAPVGGPKRVLVTQQFPCQNPLPVNSGQAQRVLCPSNSSQRIPLQAQKLVSSHKPVQNQKQKQLQATSVPHPVSRPLNNTQKSKQPLPSAPENNPEEELASKQKNEESKKRQWALEDFEIGRPLGKGKFGNVYLAREKQSKFILALKVLFKAQLEKAGVEHQLRREVEIQSHLRHPNILRLYGYFHDATRVYLILEYAPLGTVYRELQKLSKFDEQRTATYITELANALSYCHSKRVIHRDIKPENLLLGSAGELKIADFGWSVHAPSSRRTTLCGTLDYLPPEMIEGRMHDEKVDLWSLGVLCYEFLVGKPPFEANTYQETYKRISRVEFTFPDFVTEGARDLISRLLKHNPSQRPMLREVLEHPWITANSSKPSNCQNKESASKQS
– | – | – | binds | – | – | Serum response factor (endogenous) (protein, UniProt P11831 1-508) MLPTQAGAAAALGRGSALGGSLNRTPTGRPGGGGGTRGANGGRVPGNGAGLGPGRLEREAAAAAATTPAPTAGALYSGSEGDSESGEEEELGAERRGLKRSLSEMEIGMVVGGPEASAAATGGYGPVSGAVSGAKPGKKTRGRVKIKMEFIDNKLRRYTTFSKRKTGIMKKAYELSTLTGTQVLLLVASETGHVYTFATRKLQPMITSETGKALIQTCLNSPDSPPRSDPTTDQRMSATGFEETDLTYQVSESDSSGETKDTLKPAFTVTNLPGTTSTIQTAPSTSTTMQVSSGPSFPITNYLAPVSASVSPSAVSSANGTVLKSTGSGPVSSGGLMQLPTSFTLMPGGAVAQQVPVQAIQVHQAPQQASPSRDSSTDLTQTSSSGTVTLPATIMTSSVPTTVGGHMMYPSPHAVMYAPTSGLGDGSLTVLNAFSQAPSTMQVSHSQVQEPGGVPQVFLTASSGTVQIPVSAVQLHQMAVIGQQAGSSSNLTELQVVNLDTAHSTKSE
